Test results taken from the supplement of paper PMC4967469.
The IC50 comes from the fitted curve, where viability falls to half of the control; where the fit passes the top or lowest dose, that dose stands as a limit. AUC is the area under the same curve over the 256-fold range up to the top dose, as a fraction; the more sensitive the line, the further below 1. For some assays here: A top dose marked as inferred is not printed in the source and was worked back from the curve model.

Legend:
Assay in all cases: Viability of human cancer cell lines after 72 h of drug (GDSC screen)
[1] = compound: CC(C)(C)c1nc(-c2cccc(NS(=O)(=O)c3c(F)cccc3F)c2F)c(-c2ccnc(N)n2)s1 [Dabrafenib]; details: top dose 10 µM
Method: (§1)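 Human cancer cell lines in 384-well plates, medium with 10% serum, drug for 72 h over a 256-fold dose range (nine 2-fold or five 4-fold steps up to the top dose). Adherent lines were fixed and stained with the nucleic acid dye Syto60, suspension lines read with resazurin; signal relative to control wells, capped at 0 and 100%. One two-parameter sigmoid per drug and line, fitted in a mixed model over all curves with the slope shared within a line.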

[2] = compound: O=C(CCCCCCC(=O)Nc1ccccc1)NO [Vorinostat]; details: top dose 10 µM
Method: as §1

[3] = compound: CCc1c2c(nc3ccc(O)cc13)-c1cc3c(c(=O)n1C2)COC(=O)[C@]3(O)CC [SN-38]; details: top dose 0.05 µM; top dose inferred
Method: as §1

[4] = compound: CNC(=O)c1ccccc1Sc1ccc2c(/C=C/c3ccccn3)n[nH]c2c1 [Axitinib]; details: top dose 2 µM
Method: as §1

[5] = compound: CN(Cc1cnc2nc(N)nc(N)c2n1)c1ccc(C(=O)N[C@@H](CCC(=O)O)C(=O)O)cc1 [Methotrexate]; details: top dose 0.2 µM
Method: as §1

Cell Line	AUC [1]	IC50 [1] [nM]	AUC [2]	IC50 [2] [nM]	AUC [3]	IC50 [3] [nM]	AUC [4]	IC50 [4] [nM]	AUC [5]	IC50 [5] [nM]
SKN-3 (head and neck, adherent)	0.979	> 10000	0.509	666	0.634	7.83	0.946	> 2000	0.931	> 200
SLVL (B-cell lymphoma, suspension)	0.966	> 10000	0.593	1140	0.581	5.28	0.981	> 2000	0.781	87.8
SNG-M (endometrium, adherent)	0.349	241	0.769	3700	0.418	1.87	0.959	> 2000	0.977	> 200
SNU-61 (large intestine, adherent)	0.976	> 10000	0.774	5220	0.98	> 50	0.955	> 2000	0.982	> 200
SNU-81 (large intestine, adherent)	0.98	> 10000	0.816	8180	0.882	> 50	0.95	> 2000	0.871	> 200
SNU-182 (liver, adherent)	0.91	> 10000	0.702	2380	0.852	41.5	0.793	960	0.984	> 200
SNU-387 (liver, adherent)	0.981	> 10000	0.758	3910	0.876	> 50	0.953	> 2000	0.984	> 200
SNU-407 (large intestine, adherent)	0.888	> 10000	0.703	2600	0.765	21.3	0.953	> 2000	0.874	> 200
SNU-423 (liver, adherent)	0.964	> 10000	0.681	2200	0.789	26.3	0.904	> 2000	0.983	> 200
SNU-C5 (large intestine, adherent)	0.78	4570	0.681	2110	0.615	6.69	0.939	> 2000	0.655	35.3
SR (lymphoid neoplasm, suspension)	0.913	> 10000	0.487	578	0.364	1.38	0.883	1770	0.393	6.56
STS-0421 (soft tissue, adherent)	0.951	> 10000	0.748	3700	0.723	15.2	0.792	1080	0.942	> 200
SU8686 (pancreas, adherent)	0.98	> 10000	0.776	4490	0.799	27.4	0.978	> 2000	0.817	130
SU-DHL-5 (B-cell lymphoma, suspension)	0.579	973	0.522	706	0.127	0.339	0.929	1870	0.64	27.5
SU-DHL-16 (B-cell lymphoma, suspension)	0.514	676	0.461	502	0.825	19.8	0.95	> 2000	0.925	160
SUIT-2 (pancreas, adherent)	0.876	> 10000	0.729	2910	0.638	7.66	0.978	> 2000	0.788	92.4
SUP-B8 (B-cell leukaemia, suspension)	0.979	> 10000	0.54	802	0.7	11.3	0.934	> 2000	0.754	66.7
SUP-HD1 (Hodgkin lymphoma, suspension)	0.982	> 10000	0.54	799	0.372	1.41	0.943	> 2000	0.839	127
SW13 (adrenal gland, adherent)	0.934	> 10000	0.754	3420	0.418	1.86	0.968	> 2000	0.982	> 200
SW626 (ovary, adherent)	0.971	> 10000	0.673	2080	0.77	22.5	0.982	> 2000	0.981	> 200
SW684 (fibrosarcoma, adherent)	0.975	> 10000	0.85	> 10000	0.903	> 50	0.983	> 2000	0.968	> 200
SW780 (bladder, adherent)	0.968	> 10000	0.826	6780	0.644	8.11	0.87	> 2000	0.788	96.8
SW954 (urogenital system, adherent)	0.963	> 10000	0.531	762	0.418	1.85	0.924	> 2000	0.835	134
SW962 (urogenital system, adherent)	0.958	> 10000	0.806	6670	0.658	9.62	0.962	> 2000	0.979	> 200
SW982 (soft tissue, adherent)	0.242	109	0.795	4780	0.297	0.822	0.935	> 2000	0.981	> 200
SW1417 (large intestine, adherent)	0.928	> 10000	0.821	7140	0.853	49.8	0.986	> 2000	0.946	> 200
